Source: PubChem BioAssay AID1745847 (National Center for Advancing Translational Sciences (NCATS), 2022)
About 670 (32%) of roughly 2,100 compounds were called active. Inconclusive means that the source gave no clear call. Such entries were picked first, then a sample of the others. The call rests on the fitted dose curve; in most records, active means well fitted inhibition curve with a large enough effect; inconclusive means small, poorly fitted or top-dose-only effect; inactive means no such curve, though single readings can be large or run the other way. A potency beside an inconclusive call is a rough fit, not a confirmed value.
On the % scale 0 is the no-effect control and ±100 the full control effect; potency means the concentration at half of the fitted maximal effect; tags describe the fitted curve by direction and shape.

Assay: CMV-Luciferase Counterscreen for Inhibitors of ATXN expression; further: nearly all actives have a fitted effect of over 55% in size
Settings: HEK-293 CMV-luciferase reporter, luminescence, 24 h; series mostly up to 57.5 µM; activity change, negative = inhibition: at the top concentration
With `COC(=O)C1=C(C)N(Cc2ccccc2)C(=NCCc2cccnc2)N[C@H]1c1ccc(Br)cc1` the Potency was active: 28.2 µM. With `COC(=O)N/N=C/c1cn(CC(C)COc2ccccc2)c2ccccc12` (stereo unspecified) the Potency was active: 17.8 µM. With `COc1ccc2c(-c3ccc(S(N)(=O)=O)cc3)c(-c3ccc(S(C)(=O)=O)cc3)sc2c1` the Potency was inconclusive: 25.1 µM [inhibitor, partial curve]. For `Cc1cc(C(=O)CN2C(=O)c3ccccc3S2(=O)=O)c(C)n1CC1CCCO1` (stereo unspecified), the Potency was active: 0.501 µM. For `COc1cccc(C(=O)Oc2c(CN3CCOCC3)cc(Cl)c3cccnc23)c1`, the Potency was inconclusive: 8.91 µM [inhibitor, partial curve, poor fit]. With `CCC1=C(OC(=O)N(CC)CC)N2C(=O)OC(=NCCc3c[nH]c4ccccc34)[C@]2(Cc2ccccc2)[C@H]2C1=CC[C@H]1C(=O)N(c3ccccc3)C(=O)[C@H]12` the “activity change, negative = inhibition” value was inactive: -21.2%. In the case of `CN(C)CCNc1ncnc2c1ncn2[C@H]1CN(Cc2ccc(-c3ccccc3)cc2)C[C@@H](CO)O1`, the “activity change, negative = inhibition” value is reported as inactive: -29.3%. In the case of `CCCCNC(=NCc1cccc(C(F)(F)F)c1)Nc1ccccc1`, the Potency is reported as inconclusive: 2.82 µM [inhibitor, partial curve, poor fit]. With `Cc1ccc(S(=O)(=O)/C(=C/Cl)NC(=O)c2ccccc2)cc1` the Potency was active: 11.2 µM. With `S=C(Nc1cc(Cl)ccc1Oc1ccccc1)N1CCN(c2ccccn2)CC1` the Potency was active: 17.8 µM. In the case of `CN(C)CCC(c1ccc(Br)cc1)c1ccccn1` (stereo unspecified), the “activity change, negative = inhibition” value is reported as inactive: -17.1%. For `Fc1ccc2[nH]c3c(N4CCc5ccccc5C4)ncnc3c2c1`, the Potency was active: 2.82 µM. In the case of `CCN(CC)S(=O)(=O)c1cccc(NC(=O)Nc2cccc(C(F)(F)F)c2)c1`, the Potency is reported as inconclusive: 0.794 µM [inhibitor, partial curve, poor fit]. With `Cc1nc(-c2ccc(C(F)(F)F)cc2)sc1C(=O)NN` the Potency was inconclusive: 10 µM [inhibitor, partial curve, poor fit]. For `CCc1ccc(NC(=O)COc2ccc(/C=C(/C#N)c3nc4ccccc4[nH]3)cc2OC)cc1`, the Potency was active: 3.55 µM. In the case of `O=c1nc(N/N=C/c2ccccn2)cn[nH]1`, the Potency is reported as active: 14.1 µM. With `Cc1nnc(SC(C)C(=O)Nc2ccc(Cl)cn2)n1Cc1ccccc1` (stereo unspecified) the “activity change, negative = inhibition” value was inactive: -4.16%. For `CCN(CC)CCNC1=NCCn2c1cc1cc(OC)ccc12`, the Potency was inconclusive: 3.55 µM [inhibitor, single point]. With `NC(Cc1ccc(C(F)(F)F)cc1)c1csc(Nc2ccc(C(=O)NCc3ccco3)cn2)n1` (stereo unspecified) the activity change, negative = inhibition was inactive: -23.4% [at 11.4 µM]. With `O=C(/C=C/NNC(=O)c1ccccc1)c1ccc([N+](=O)[O-])cc1` the Potency was inconclusive: 8.91 µM [inhibitor, partial curve, poor fit]. For `Cc1c(Cl)c([N+](=O)[O-])nn1Cc1ccc(C(=O)N/N=C\c2cc(Cl)ccc2O)o1`, the Potency was active: 0.631 µM. In the case of `CC1CCN(Cc2c(C(=O)N/N=C/c3cc(Br)ccc3O)nnn2-c2nonc2N)CC1`, the Potency is reported as active: 0.447 µM. In the case of `CCOC(=O)N1CCN(c2ccnc3cc(Cl)ccc23)CC1`, the Potency is reported as active: 2.51 µM. For `Cc1nc2ccccc2n1/N=C/c1ccc([N+](=O)[O-])o1`, the Potency was inconclusive: 12.6 µM [inhibitor, partial curve, poor fit]. For `CN(C)CCCN(C(=O)c1ccc2c(c1)CCCC2)c1nc2cc3c(cc2s1)OCO3`, the “activity change, negative = inhibition” value was inactive: -9.48%. In the case of `O=C(N/N=C/c1cc(Cl)cc([N+](=O)[O-])c1O)c1cccc(S(=O)(=O)N2CCOCC2)c1`, the Potency is reported as inconclusive: 3.16 µM [inhibitor, partial curve, poor fit]. With `COc1ccc(-c2csc(N(CCCN3CCOCC3)C(=O)c3ccco3)n2)cc1` the Potency was inconclusive: 5.01 µM [inhibitor, single point]. In the case of `COc1cc(OC)cc(-c2cc3nc(C)c(CCC(=O)O)c(C)n3n2)c1`, the Potency is reported as active: 1 µM. In the case of `CN(C)c1ccc(NC(=O)Nc2nc(C(N)C3CCCCC3)cs2)cc1` (stereo unspecified), the “activity change, negative = inhibition” value is reported as inactive: -22.2%. For `Cc1ccc(C(C)C)c(OCc2ccc(C(=O)N/N=C/c3ccc(O)cc3O)cc2)c1`, the Potency was active: 2.51 µM. In the case of `CC(=O)N/N=C/c1cc(C(C)(C)C)cc(/C=N/NC(C)=O)c1O`, the Potency is reported as active: 3.16 µM. In the case of `Cc1ccccc1C(=O)N1CCN(c2ccc(NC(=O)c3ccco3)cc2Cl)CC1`, the Potency is reported as active: 12.6 µM. In the case of `CCCc1nc(NC2CCCCC2)c(C#N)c2c1COC(C)(C)C2`, the activity change, negative = inhibition is reported as inactive: -15.4% [at 11.4 µM]. In the case of `C=CCc1cccc(/C=N/NC(=O)CNc2ccccc2)c1O`, the Potency is reported as active: 2 µM. For `O=C(N/N=C/c1cc([N+](=O)[O-])ccc1O)c1c[nH]c2ccccc12`, the Potency was inconclusive: 6.31 µM [inhibitor, partial curve]. With `COc1ccccc1NC(=O)CSc1n[nH]c(-c2ccccn2)n1` the Potency was inconclusive: 28.2 µM [inhibitor, single point]. In the case of `Cc1nc2c(OCc3ccc(C#N)cc3)cccn2c1N(C)Cc1cccs1`, the Potency is reported as inconclusive: 22.4 µM [inhibitor, single point]. For `CCN(CC)S(=O)(=O)c1cc(NC(=O)C2CCN(c3ncnc4sc(C)c(C)c34)CC2)ccc1Cl`, the “activity change, negative = inhibition” value was inactive: 52%. In the case of `O=C1c2cc(Cl)ccc2-c2c(O)cc(Cl)cc21`, the “activity change, negative = inhibition” value is reported as inactive: -8.29%. In the case of `COc1ccc(/C=C/C(=O)Nc2cccc(F)c2)cc1S(=O)(=O)N1CCOCC1`, the Potency is reported as inconclusive: 11.2 µM [inhibitor, partial curve, poor fit]. With `N/C(=C\C(=O)c1cc(Cl)ccc1O)C(Cl)(Cl)Cl` the activity change, negative = inhibition was inactive: 21.6% [at 11.4 µM]. With `O=C(CCCN1C(=O)/C(=C/c2ccccc2Cl)SC1=S)Nc1ccccn1` the Potency was inconclusive: 11.2 µM [inhibitor, partial curve, poor fit]. In the case of `COc1ccc(CNC(=O)Nc2nc(C(N)Cc3ccc(Cl)cc3)cs2)cc1` (stereo unspecified), the Potency is reported as inconclusive: 28.2 µM [inhibitor, single point]. For `Cc1nc2c(OCc3cccc(Cl)c3)cccn2c1N(C)Cc1cccs1`, the Potency was inconclusive: 28.2 µM [inhibitor, single point]. For `CCOc1cc(/C=N\NC(=O)c2ccc(NC(=O)CC)cc2)ccc1OC(=O)c1ccccc1`, the Potency was inconclusive: 28.2 µM [inhibitor, single point]. In the case of `C/C(=C\C(=O)c1ccc(Br)cc1)NNC(=O)c1ccc(O)cc1`, the Potency is reported as inconclusive: 10 µM [inhibitor, partial curve]. With `Cn1c(=O)c(C#N)c(-c2ccc(F)cc2)c2cc(C(=O)c3cc(Cl)cc(Cl)c3O)cnc21` the Potency was active: 3.55 µM. In the case of `Cc1cc(Oc2ccc(Cl)cc2)nc(-c2ccccn2)n1`, the “activity change, negative = inhibition” value is reported as inactive: -22.3%. For `NS(=O)(=O)c1ccc(N2N=C(c3ccc(Br)cc3)CC2c2ccc(F)cc2)cc1` (stereo unspecified), the Potency was inconclusive: 17.8 µM [inhibitor, single point]. With `Cc1cc(C)nc(NNS(=O)(=O)c2ccc(F)c(Cl)c2)n1` the activity change, negative = inhibition was inactive: -15.9% [at 11.4 µM]. For `O=C(N/N=C/c1cc(O)ccc1Br)c1cccnc1`, the Potency was inconclusive: 2.82 µM [inhibitor, full curve, poor fit]. In the case of `CCOc1ccc(-c2nnc(Nc3ccc(OC)c(C(=O)N4CCCCC4)c3)c3ccccc23)cc1`, the Potency is reported as inconclusive: 5.01 µM [inhibitor, single point]. With `O=C(CCCC(=O)Nc1cccc(Br)c1)N/N=C/c1cc([N+](=O)[O-])ccc1O` the Potency was inconclusive: 2.82 µM [inhibitor, partial curve, poor fit]. For `Cc1ccc(O)c(CNCCNCc2cc(C)ccc2O)c1`, the Potency was inconclusive: 17.8 µM [inhibitor, partial curve, poor fit]. With `O=C(NC1=CC(=O)c2ccccc2C1=O)c1ccccc1` the Potency was inconclusive: 39.8 µM [inhibitor, single point]. With `CN(CCOc1ccc(Cl)cc1)C(=O)c1cc(S(=O)(=O)N2CCOCC2)ccc1N1CCCC1` the Potency was inconclusive: 6.31 µM [inhibitor, single point]. For `Cc1cc(C)c(C(=O)/C=C/c2ccc(C(C)C)cc2)c(=O)[nH]1`, the Potency was active: 8.91 µM. In the case of `CCC(C)n1cnc2c(c1=O)c1nc3ccccc3nc1n2-c1ccc2c(c1)OCCO2` (stereo unspecified), the “activity change, negative = inhibition” value is reported as inactive: 2.65%. For `CCCCC(=O)NC(c1ccco1)c1cc(Cl)c2cccnc2c1O` (stereo unspecified), the Potency was inconclusive: 3.55 µM [inhibitor, partial curve, poor fit]. With `CCCCOc1ccc(C(=O)NNC(=O)c2cnccn2)cc1OC` the Potency was active: 10 µM. With `Cc1ccccc1SCC(=O)N1CCN(c2ccc(C(F)(F)F)cn2)CC1` the Potency was inconclusive: 3.55 µM [inhibitor, single point]. With `O=C(Cn1c(=O)n(CC(=O)NCc2ccccc2)c2ccccc21)NCc1ccccc1` the “activity change, negative = inhibition” value was inactive: 22.5%. With `COc1ccc(-c2n[nH]c(C)c2-c2cnn(-c3ccccc3)c2)c(O)c1C` the Potency was inconclusive: 25.1 µM [inhibitor, single point]. With `Nc1nc(NCCc2ccccc2)nc(NCc2ccccc2)c1[N+](=O)[O-]` the “activity change, negative = inhibition” value was inactive: -24%. For `CN[C@H]1C[C@H]2c3[nH]c4ccc(-c5ccc(OC)cc5)cc4c3CCN2C(=O)[C@H]1[C@H](C)O`, the Potency was active: 3.55 µM. For `Nc1ccn([C@@H]2O[C@H](CO)[C@@H](O)[C@@H]2O)c(=O)n1`, the Potency was inconclusive: 1.58 µM [inhibitor, partial curve]. With `CCCC(=O)NC(c1ccccc1)c1ccc2cccnc2c1O` (stereo unspecified) the Potency was active: 2.24 µM. For `COc1cc(C)c(C(=O)CC(=O)c2c(C)cc(OC)cc2C)c(C)c1`, the activity change, negative = inhibition was inactive: -13.8% [at 11.4 µM]. In the case of `CC(C)(C)c1ccc(Oc2ccc(N)cc2)cc1`, the Potency is reported as active: 3.98 µM. In the case of `COCc1cc(CN2CCCC2)c(O)c2ncccc12`, the Potency is reported as inconclusive: 3.55 µM [inhibitor, partial curve]. In the case of `COc1cc(/C=N/Nc2ccc(Cl)c(C(=O)O)c2)ccc1OC(=O)c1ccco1`, the Potency is reported as inconclusive: 3.98 µM [inhibitor, single point].
